# Measured values from PubChem BioAssay AID588342 (National Center for Advancing Translational Sciences (NCATS), 2011).
# Screen size: about 360,000 compounds; about 25,000 (6.9%) were called active. Inconclusive results, whose numbers are uncertain, are shown with a selection of clear calls. The call rests on the fitted dose curve; in most records, active means well fitted inhibition curve with a large enough effect; inconclusive means small, poorly fitted or top-dose-only effect; inactive means flat fitted curve, though single readings scatter. Where the call is inconclusive, the potency comes from a doubtful curve fit.
# Biological target: Luciferin 4-monooxygenase (Photinus pyralis) (UniProt P08659)
# Experiment: qHTS profiling assay for firefly luciferase inhibitor/activator using purifed enzyme and Km concentrations of substrates (counterscreen for miR-21 project); further: nearly all actives have a fitted effect of over 55% in size;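 on activity change, negative = inhibition: plate controls were vehicle for no effect and reference inhibitor for full effect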
# Details: purified FLuc, luminescence inhibition; activity change, negative = inhibition: at 57.5 µM (top of the series)
# Procedure, shortened: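 Purified P. pyralis luciferase (10nM final) with 10uM D-luciferin and 10uM ATP (Km levels) in 50mM Tris acetate pH 7.5, 10mM Mg acetate, 0.01% Tween-20, 0.05% BSA; qHTS 6-point titration, ~60 µM downward; luminescence read.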
# Potency means the concentration at half of the fitted maximal effect; tags describe the fitted curve by direction and shape.
# Sequence of UniProt P08659 (P08659 whole entry, looked up): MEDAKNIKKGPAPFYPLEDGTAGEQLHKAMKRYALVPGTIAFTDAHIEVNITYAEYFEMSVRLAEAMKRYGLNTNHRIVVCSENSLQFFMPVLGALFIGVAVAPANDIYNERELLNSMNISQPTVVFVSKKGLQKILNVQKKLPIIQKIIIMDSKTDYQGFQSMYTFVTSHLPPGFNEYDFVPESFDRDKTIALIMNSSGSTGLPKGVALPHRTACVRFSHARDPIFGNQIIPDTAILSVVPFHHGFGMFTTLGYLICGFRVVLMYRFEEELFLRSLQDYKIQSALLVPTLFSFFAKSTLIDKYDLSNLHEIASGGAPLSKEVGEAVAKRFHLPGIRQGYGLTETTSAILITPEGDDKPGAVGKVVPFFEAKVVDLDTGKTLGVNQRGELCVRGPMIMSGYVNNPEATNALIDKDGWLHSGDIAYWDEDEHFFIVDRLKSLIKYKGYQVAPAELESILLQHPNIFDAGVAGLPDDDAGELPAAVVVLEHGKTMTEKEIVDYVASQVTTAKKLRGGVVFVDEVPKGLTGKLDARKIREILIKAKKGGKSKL
SMILES,Potency,"activity change, negative = inhibition"
CCOc1cc(/C=C2\SC(=N)N(c3nccs3)C2=O)ccc1OCCN1CCOCC1,"inconclusive: 19 µM [inhibitor, single point]",–
COCC(=O)N1c2nc(C(C)C)nn2C2(CCCCC2)[C@@H]2CCCC[C@@H]21,–,inactive: -4.65%
Cc1c(C(=O)NCc2ccccc2)sc2nc3n(c(=O)c12)CCC3,"inconclusive: 12 µM [inhibitor, partial curve]",–
COc1ccc(Cc2nnc(SCC(=O)c3ccccc3)o2)cc1,"inconclusive: 30.1 µM [inhibitor, partial curve, poor fit]",–
COc1ccccc1NC(=O)Nc1nn(C)c2cccc(OC)c12,"inconclusive: 16.9 µM [inhibitor, partial curve, poor fit]",–
Cc1c(NC(=O)C(C)OC(=O)c2ccc(NC(=O)CC#N)cc2)c(=O)n(-c2ccccc2)n1C (centres undefined),–,inactive: 2.39%
O=[N+]([O-])c1cc(-c2nc(-c3cccnc3)no2)ccc1NCc1ccccc1,"inconclusive: 23.9 µM [inhibitor, partial curve]",–
CC(C)c1ccc(NC(=O)CN2C(=O)COc3ccc(S(=O)(=O)Nc4ccccc4)cc32)cc1,"inconclusive: 16.9 µM [inhibitor, partial curve]",–
Cc1noc(C)c1COC(=O)/C=C/c1ccccc1Cl,"inconclusive: 37.9 µM [inhibitor, partial curve, poor fit]",–
O=C(COc1ccccc1F)OCC(=O)N1CCc2ccccc21,"inconclusive: 23.9 µM [inhibitor, single point]",–
Cc1ccc2c(c1)N=C(c1ccc(Cl)cc1)CO2,active: 1.69 µM,–
COc1ccc(C(=O)COC(=O)c2cccc(-n3cnnn3)c2)c(OC)c1,active: 10.7 µM,–
Cn1c(=O)c(C(=O)NCC2CCCO2)c(O)c2ccccc21 (centres undefined),"inconclusive: 23.9 µM [inhibitor, single point]",–
COc1cccc(-c2nn(-c3ccc(C)cc3)cc2C(=O)NCC(c2cccs2)N2CCOCC2)c1 (centres undefined),"inconclusive: 16.9 µM [inhibitor, partial curve]",–
N#C/C(=C\c1cccnc1)C(=O)Nc1ccc(Cl)cc1,"inconclusive: 9.53 µM [inhibitor, partial curve]",–
Cc1ccc(C(=O)N2CCc3cc(CNC(=O)COc4ccccc4)ccc32)cc1,"inconclusive: 21.3 µM [inhibitor, single point]",–
CCOc1ccc(Nc2nc3ccccc3n3c(CC)nnc23)cc1,"inconclusive: 30.1 µM [inhibitor, partial curve]",–
O=S(=O)(c1cccc(C(F)(F)F)c1)n1c(/C=C/c2ccccc2)nc2ccccc21,active: 12 µM,–
O=C(Nc1cc(Cl)ccc1-n1cncn1)C1CC1,–,inactive: 2.75%
O=C(NC(=S)Nc1cccc2[nH]ncc12)c1ccccc1,"inconclusive: 3.38 µM [inhibitor, full curve, poor fit]",–
Cc1ccc(-n2nc3c(=O)n(CCCC(=O)NCc4ccccc4Cl)nc(C)c3c2C)cc1,"inconclusive: 30.1 µM [inhibitor, single point]",–
CCOC(=O)c1sc(N2N=C(C)/C(=C\c3ccc(OCC(=O)OC)cc3)C2=O)nc1C,"inconclusive: 23.9 µM [inhibitor, single point]",–

SMILES,Potency,"activity change, negative = inhibition"
O=C(NC(=S)Nc1ccc2c(c1)OCO2)c1ccc(Cl)cc1,"inconclusive: 2.13 µM [inhibitor, partial curve]",–
COc1ccc(S(=O)(=O)N(CCc2ccccc2)CC(=O)O)cc1C,"inconclusive: 8.49 µM [inhibitor, partial curve, poor fit]",–
O=C1c2ccccc2-n2c1nc1ccccc1c2=O,"inconclusive: 21.3 µM [inhibitor, partial curve, poor fit]",–
Cc1nn(C)c(C)c1CNC(=O)/C=C/c1ccccc1F,–,inactive: -13.1%
O=C(CSC(=S)N1CCOCC1)N1N=CCC1c1ccccc1 (centres undefined),"inconclusive: 37.9 µM [inhibitor, partial curve, poor fit]",–
CC(=O)N(/N=C1/C(=O)Nc2ccccc21)c1ccccc1,–,inactive: -16.6%
COC(=O)c1ccc(C(=O)NC2CCCc3c2cnn3-c2cc(F)cc(F)c2)nc1 (centres undefined),–,inactive: -12.5%
Clc1ccc(CSc2nc3ccncc3[nH]2)cc1,active: 4.78 µM,–
COC(=O)c1ccc(-c2nc3ccccc3o2)cc1,active: 1.9 µM,–
COc1cccc(CNc2ccc3c(c2)nc(C)n3C)c1OC,active: 23.9 µM,–
CC(C)c1ccc(O)c(NC(=O)c2cncc(Br)c2)c1,"inconclusive: 15.1 µM [inhibitor, partial curve, poor fit]",–
Nc1nnc(-c2cn(-c3ccccc3)nc2-c2ccccc2)o1,"inconclusive: 26.9 µM [inhibitor, partial curve, poor fit]",–
CC(=O)c1cnc(Nc2ccc(C)cc2)s1,"inconclusive: 23.9 µM [inhibitor, single point]",–
Cc1cc(=O)[nH]c(SCC(=O)Nc2nc(-c3ccccc3)cs2)n1,–,inactive: -10.9%
CN(C)c1ccc(NC(=O)CSc2nnc(C3CCCCC3)n2N)cc1,"inconclusive: 26.9 µM [inhibitor, single point]",–
O=C(Nc1cc(Cl)cc(Cl)c1)c1cccc(OC(F)F)c1,"inconclusive: 23.9 µM [inhibitor, single point]",–
NC(=O)C1CC(=O)N(c2ccc(OCc3ccccc3Cl)cc2)C1 (centres undefined),"inconclusive: 26.9 µM [inhibitor, partial curve]",–
Cc1cc(C)c2nc(SCC(=O)NC(=O)c3cccn3C)cc(C)c2c1,"inconclusive: 16.9 µM [inhibitor, partial curve, poor fit]",–
CN(C(=O)c1nn(C)c2c1COc1ccccc1-2)c1cccc(C(F)(F)F)c1,–,inactive: 3.62%
COc1ccccc1NC(=O)C(C)OC(=O)CC1CCCCC1 (centres undefined),–,inactive: 0.628%
COCCNC(=O)c1c(NC(=O)Cc2coc3cc(C)ccc23)sc2c1CCCC2,"inconclusive: 10.7 µM [inhibitor, partial curve, poor fit]",–
C=CCn1c(SCC(=O)NC(N)=O)nnc1-c1cc2c(s1)CCC(CC)C2 (centres undefined),"inconclusive: 15.1 µM [inhibitor, partial curve]",–
